According to the supplement of paper PMC4604168 (melanoma cell lines):
The other results are listed elsewhere or left out. Most values come without repeats; read them as rough.

Experiments:
Assay in all cases: cell count relative to DMSO control; melanoma cells; higher = more viable cells
Conditions in all cases: library dose: standard library concentration; 72 h
SkMel28 = test system: SkMel28
SkMel2 = test system: SkMel2
SkMel30 = test system: SkMel30
SkMel5 = test system: SkMel5
UACC257 = test system: UACC257
UACC62 = test system: UACC62
WM115 = test system: WM115
WM1716 = test system: WM1716
WM3526 = test system: WM3526
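Further: cells treated in 1,536-well plates, then fixed and DAPI-stained, with nuclei counted from automated high-throughput microscope images.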

Compound | cell count (SkMel28) | cell count (SkMel2) | cell count (SkMel30) | cell count (SkMel5) | cell count (UACC257) | cell count (UACC62) | cell count (WM115) | cell count (WM1716) | cell count (WM3526)
CN(c1ncccc1CNc1nc(Nc2ccc3c(c2)CC(=O)N3)ncc1C(F)(F)F)S(C)(=O)=O + Oc1nc(-c2ccc(C(F)(F)F)cc2)nc2c1CSCC2 [XAV939] (first compound 0.4 µM, partner dose 10 µM) | 68.7% | 91.1% | 103% | 56.6% | 84.2% | 78.7% | 108% | 75.8% | 127%
CCCS(=O)(=O)Nc1ccc(F)c(C(=O)c2c[nH]c3ncc(Cl)cc23)c1F + Oc1cc(-c2nc(-c3ccccc3)[nH]c2-c2ccncc2)ccc1Cl [L779450] (first compound 0.4 µM, partner dose 1 µM) | 42.5% | 26.3% | 88% | 61.5% | 81.8% | 47.7% | 47.6% | 56.1% | 47%
CN(c1ncccc1CNc1nc(Nc2ccc3c(c2)CC(=O)N3)ncc1C(F)(F)F)S(C)(=O)=O + O=C(O)C(=O)Nc1sc2c(c1C(=O)O)CCNC2 [TCS401] (first compound 0.4 µM, partner dose 8.33333 µM) | 70.1% | 77.3% | 132% | 49.3% | 87.9% | 81.9% | 81.9% | 68.9% | 93.2%
CN(c1ncccc1CNc1nc(Nc2ccc3c(c2)CC(=O)N3)ncc1C(F)(F)F)S(C)(=O)=O + COc1ccc(-c2ccc3c(N4CCOCC4)nc(N4C[C@@H](C)O[C@@H](C)C4)nc3n2)cc1CO [KU0063794] (first compound 0.4 µM, partner dose 0.1 µM) | 84.1% | 73.1% | 112% | 79.4% | 91.6% | 74.6% | 93.1% | 83.9% | 109%
CN(c1ncccc1CNc1nc(Nc2ccc3c(c2)CC(=O)N3)ncc1C(F)(F)F)S(C)(=O)=O + O=C(Nc1ccccc1)c1cc([N+](=O)[O-])ccc1Cl [GW9662] (first compound 0.4 µM, partner dose 10 µM) | 54.7% | 107% | 116% | 97.9% | 80.3% | 58.8% | 67% | 97.3% | 97%
NC1(c2ccc(-c3nc4ccn5c(=O)[nH]nc5c4cc3-c3ccccc3)cc2)CCC1 + COc1ccc2c(c1)CCC1C2CCC2(C)C(NCCCCCCN3C(=O)C=CC3=O)CCC12 [U73122] (first compound 2 µM, partner dose 2 µM) | 67.5% | 80% | 87.3% | 59.9% | 85% | 66.2% | 62.9% | 77.8% | 71%
NC1(c2ccc(-c3nc4ccn5c(=O)[nH]nc5c4cc3-c3ccccc3)cc2)CCC1 + Cn1cc(/C=C2\C(=O)Nc3cccnc32)c2ccccc21 [GW441756] (first compound 2 µM, partner dose 2 µM) | 48.5% | 76.7% | 106% | 56.6% | 72.9% | 66.5% | 64.9% | 80.7% | 77.7%
CS(=O)(=O)c1ccc(C(=O)Nc2ccc(Cl)c(-c3ccccn3)c2)c(Cl)c1 [vismodegib] + Oc1nc(-c2ccc(C(F)(F)F)cc2)nc2c1CSCC2 [XAV939] (first compound 5 µM, partner dose 10 µM) | 99.8% | 98.5% | 102% | 44.2% | 78% | 78.9% | 91.6% | 47.8% | 102%
CCCS(=O)(=O)Nc1ccc(F)c(C(=O)c2c[nH]c3ncc(Cl)cc23)c1F + CCCCCCCCCCCC1=C(O)C(=O)C=C(O)C1=O [Embelin] (first compound 0.4 µM, partner dose 6 µM) | 63.9% | 97.5% | 132% | 78.8% | 96% | 83.9% | 92.2% | 79% | 73.4%
NC1(c2ccc(-c3nc4ccn5c(=O)[nH]nc5c4cc3-c3ccccc3)cc2)CCC1 + O=c1cc(-c2cccc3c2Sc2ccccc2S3)oc(N2CCOCC2)c1 [KU55933] (first compound 2 µM, partner dose 5 µM) | 49% | 54% | 102% | 57.7% | 94.2% | 68.5% | 84.8% | 75% | 58.5%
C=C(c1ccc(C(=O)O)cc1)c1cc2c(cc1C)C(C)(C)CCC2(C)C [Bexarotene] + COc1cc(N2CCC(N3CCN(C)CC3)CC2)ccc1Nc1ncc(Cl)c(Nc2ccccc2S(=O)(=O)C(C)C)n1 [NVP-TAE684] (first compound 10 µM, partner dose 0.4 µM) | 69.3% | 70.4% | 94.7% | 78% | 88.5% | 75.7% | 94.7% | 79.4% | 82.9%
NC1(c2ccc(-c3nc4ccn5c(=O)[nH]nc5c4cc3-c3ccccc3)cc2)CCC1 + Oc1nc(-c2ccc(C(F)(F)F)cc2)nc2c1CSCC2 [XAV939] (first compound 2 µM, partner dose 10 µM) | 60.2% | 85.2% | 112% | 64.2% | 84.7% | 87.9% | 88.7% | 60.8% | 94.9%
